The source of these data is article PMC5323128 (2016).

In test [1] the target is Divalent TRAIL^mim/DR5 peptide 2d. Briefly: SPR; apparent koff.
Test [2] deals with Tetravalent TRAIL^mim/DR5 peptide 2ta. Briefly: SPR; apparent koff. On the technique in general: Surface plasmon resonance follows binding to a sensor surface in real time, without labels.

B1: Recombinant human DR5 (Death Receptor 5) (receptor)
chain: not shown
As for B1, the koff was 0.002 s⁻¹ in test [1] and 0.0001 s⁻¹ in test [2].

What is called koff is the first-order rate constant of dissociation.
